From the supplement of paper PMC11417369
This is one part of the list.

Tested on: PF3D7_0420300 AP2 domain 1 (GST-tagged)
Assay: gcPBM binding intensity (ln(normalized median fluorescence intensity)); higher = stronger DNA binding
In short: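 An Agilent 4 × 180k array carrying primer-extended double-stranded 36-bp intergenic genomic probes and negative controls received GST-tagged P. falciparum DNA-binding domains expressed in E. coli, about 25 μg on average, for 1 h. The binding buffer contained 1× PBS, 1% milk, 0.2 mg/ml BSA, 0.5% salmon testes DNA and 0.03% Triton X-100. Binding intensity is the top Masliner-normalised natural-log median intensity across replicate spots of either probe orientation, read after Alexa488 anti-GST antibody staining and a 488 nm scan.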

| Sequence | gcPBM binding intensity (ln) |
| --- | --- |
| TTTTAATATTAAGATGTCTTTTACGTTTATTTTGTA [CACACA_negctrl_site765] | 9.23 |
| TAATTATTTGCCCTTACTCTGAACATTCGGAATTTA [CACACA_negctrl_site1278] | 9.25 |
| ATCTGCATATATATATGTACATATTTTAGAATGCAC [XGTACX_site708] | 9.1 |
| TTCTTTTTAAATTACACACACATATAAATATGTATA [CACACA_site7618] | 9.66 |
| TTTATGTGTTATAAATGTACATAATATAATTCGTAT [XGTACX_site3845] | 9.21 |
| TTTTTTTTATTTTGTTGTACGCTTATTTGTATATAT [XGTACX_site7325] | 9.67 |
| TTATCTATAAATACGAGTACGCAAAATCATATAATA [XGTACX_site2447] | 9.17 |
| TTATTTTTTTTTTTTTGTACACAATTTGACACATTA [XGTACX_site7983] | 9.24 |
| TTTATTTAATTATGTTGTACATGTAGGATTTATTTT [XGTACX_site7078] | 9.22 |
| AAAAAGGAAATAATAACACACATTAATAATTATAAA [CACACA_site3401] | 9.6 |
| TAAAAAGTTATATTCACACACATACACATATAAATA [CACACA_site6398] | 9.76 |
| AATTATAAATCTTGCACACAAAAAAAATAATAAAAA [CACACA_site2434] | 9.48 |
| TAATAAATAATGGTTACACACAAAATATAAAACTTA [CACACA_site3544] | 9.48 |
| TAAACACATATATAGACATGCAACTAGTTTTTATAA [TGCATGCA_site474] | 9.23 |
| AAATCTTTGTGTGGATGTACTTTTATAAAAAAGAAT [XGTACX_site3830] | 9.05 |
| TCTGTTCTTTTTTAATGTACAAGAAATATAAAATTC [XGTACX_site3600] | 9.04 |
| AATTTTTAGTATATAACATAAAATAAAATAAAATAA [GTGCAC_negctrl_site696] | 9.03 |
| TTTTTTTTTATTTGTTGTACGAGGTTTTAAAATTTT [XGTACX_site106] | 9.35 |
| TATAATATTCTATATGCATGTACACCATTCTTTATT [TGCATGCA_site688] | 9.43 |
| ACAATATCTAGATACACACACATATCTCTCAATCTA [CACACA_site656] | 9.76 |
| TATTGTTATCTTTTATGTACTTAAAAAAATAAATTT [XGTACX_site4233] | 9.13 |
| AAAAAGGTTATTGGTACACACATATGTATATAAATA [CACACA_site6402] | 9.46 |

| Sequence | gcPBM binding intensity (ln) |
| --- | --- |
| TAATAAAACATATATACACACATTATATATACATAT [CACACA_site8495] | 9.6 |
| GTAGGCATTAAAAAATGTACAAAATATTATGAATTG [XGTACX_site1615] | 9.17 |
| GTTAAAAAAAGGAGAGATCTCACACAAATATATATA [GTGCAC_negctrl_site117] | 9.22 |
| CATTTAATAATAACAAGTACACAAAGATGTATAACA [XGTACX_site8315] | 9.38 |
| CATAAATACTATATATGTACGTAATTTTTAAAACAT [XGTACX_site7710] | 9.25 |
| ATGATAAATATAAGTTGTACATATATCTATGTGCAT [XGTACX_site6010] | 9.26 |
| AATATATATGAAAAAAGTACTCAAGGAATAAAAAAA [XGTACX_site7720] | 9.42 |
| GGGTGCCAAATTAGCACACACATATATACCTGAATT [CACACA_site5551] | 9.55 |
| TATATATATATATATGTGCGCATTACTTTAAGAATA | 9.09 |
| TTACAAATAATTTGTTGTACGCTTTTTTTCTTTTTT [XGTACX_site7199] | 9.48 |
| ATTTTTTTGTTAATTTGTACATAAAATTTTATTTTA [XGTACX_site7007] | 9.19 |
| ATATTTATTTTATAAAGTACTAAAAAATATATTATA [XGTACX_site8522] | 8.77 |
| AAAAAAAAAAAAAAAACACACAAACGCTTTTTTTTT [CACACA_site4545] | 9.36 |
| GGATAAGAGGCATATACACACAATTTAAAAAAATAA [CACACA_site4657] | 9.46 |
| ATAAATATTGCGTGCACACACATAATATTTATATAT [CACACA_site7136] | 9.47 |
| TATAATATATTCATGTGTACATATATTTCGAACATA [XGTACX_site1754] | 9.2 |
| CGAAAAATATGTATGAGTACTTATATTTAAACTATA [XGTACX_site1911] | 9.14 |
| ATGTCATAAAAACATATACACACTTGAAATATAAAA [CACACA_site2329] | 9.41 |
| CATTCCTATTATTATACACACAAATTAAGAATTCAA [CACACA_site787] | 9.3 |
| AATAGTTGCTAAAGGTGTACAATACATTTATTAGAA [XGTACX_site2773] | 9.29 |
| TATTACTTAAATAAAAGTACATATAACATTTTAGTT [XGTACX_site196] | 9.06 |
| TGTATAGTCTAAAGTTGTACAAAAAAAAAAAAAAAA [XGTACX_site5764] | 8.67 |
